In all, about 310,000 compounds went through this assay and about 2,200 (0.71%) showed an effect of 50% or more. The effect is printed as a negative number. Some of the results follow.
Target: human ether-à-go-go-related gene (hERG) potassium channel (human, UniProt Q12809)
Test: primary screen, population patch clamp on CHO cells stably expressing hERG

human ether-à-go-go-related gene (hERG) potassium channel, sequence (Q12809 whole entry, looked up): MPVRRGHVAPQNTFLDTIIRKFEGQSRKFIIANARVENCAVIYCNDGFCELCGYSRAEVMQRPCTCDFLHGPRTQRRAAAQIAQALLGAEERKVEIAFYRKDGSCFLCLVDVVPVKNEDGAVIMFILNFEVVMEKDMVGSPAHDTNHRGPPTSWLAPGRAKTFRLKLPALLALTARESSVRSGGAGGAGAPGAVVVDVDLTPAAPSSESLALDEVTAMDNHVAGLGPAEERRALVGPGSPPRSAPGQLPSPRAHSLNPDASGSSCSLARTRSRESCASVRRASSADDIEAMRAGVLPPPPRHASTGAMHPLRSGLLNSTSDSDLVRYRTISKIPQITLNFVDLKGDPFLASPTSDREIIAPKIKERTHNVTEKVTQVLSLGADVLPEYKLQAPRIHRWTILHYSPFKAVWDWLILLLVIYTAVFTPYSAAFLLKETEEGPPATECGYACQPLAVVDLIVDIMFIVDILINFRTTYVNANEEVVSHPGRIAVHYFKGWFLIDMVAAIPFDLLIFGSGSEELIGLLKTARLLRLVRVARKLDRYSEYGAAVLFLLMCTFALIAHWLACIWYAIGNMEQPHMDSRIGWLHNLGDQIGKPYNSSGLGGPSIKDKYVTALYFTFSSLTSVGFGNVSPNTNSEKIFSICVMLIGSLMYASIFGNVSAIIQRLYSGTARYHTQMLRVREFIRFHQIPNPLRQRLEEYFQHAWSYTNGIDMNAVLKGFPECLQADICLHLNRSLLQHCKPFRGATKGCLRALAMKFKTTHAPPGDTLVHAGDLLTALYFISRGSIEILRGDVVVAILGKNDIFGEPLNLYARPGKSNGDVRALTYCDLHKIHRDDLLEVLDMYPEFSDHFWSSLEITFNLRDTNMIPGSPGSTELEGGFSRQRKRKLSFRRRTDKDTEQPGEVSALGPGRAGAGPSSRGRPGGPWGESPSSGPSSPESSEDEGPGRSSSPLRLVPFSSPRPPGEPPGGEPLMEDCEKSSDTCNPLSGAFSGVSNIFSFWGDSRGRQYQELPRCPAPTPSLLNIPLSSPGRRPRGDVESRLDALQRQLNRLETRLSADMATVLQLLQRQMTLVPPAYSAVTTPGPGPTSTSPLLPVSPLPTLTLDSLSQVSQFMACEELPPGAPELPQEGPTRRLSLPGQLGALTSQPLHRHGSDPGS

Compound	hERG current change (%, negative = inhibition) at 1uM
O=c1[nH]c(/C=C\c2cccnc2)c([N+](=O)[O-])c(=O)[nH]1	10.8%
C/C(=N\NC(=O)c1ccc(N(C)C)cc1)c1ccc(C)c(C)c1	7.22%
Fc1cccc(Cl)c1Cn1ncc2ccccc21	5.44%
Cc1nnc(N2C(=O)C(=O)/C(=C(/O)c3ccc4c(c3)OCCO4)C2c2ccc([N+](=O)[O-])cc2)s1 (centres unmarked)	15.1%
Cc1ccc(NC(=S)N(CCCN2CCCC2)Cc2cccn2Cc2ccc(Cl)cc2)cc1C	10.2%
COC(=O)CCC(=O)N1CN2CN(C(=O)CCC(=O)OC)CC([N+](=O)[O-])(C2)C1	-1.51%
CCCCCCNC(=O)Cc1c(O)c2ccccc2[nH]c1=O	7.67%
O=C(CCN1CCN(Cc2ccccc2)CC1)Nc1cccc(Br)c1	-19.5%
C=CCn1c(=O)c(C(=O)NCc2ccccc2)c(O)c2ccccc21	13.2%
O=C(Nc1cccc2ccccc12)NC(Cc1ccccc1)C(=O)O (centres unmarked)	15.5%
COC(=O)CC(NC(=O)C1CC1)c1ccc2c(c1)OCO2 (centres unmarked)	0.263%
CN(C)c1ccc(CNc2nc(-c3ccccc3)nn2S(C)(=O)=O)cc1	14.6%
CC1=C(C(=O)Nc2ccccc2)C(c2ccncc2)C(C#N)=C(SCC(=O)NC(C)C)N1 (centres unmarked)	-1.09%
COc1ccccc1NS(=O)(=O)c1ccc(O)c(C(=O)OCC(=O)c2ccc(Cl)cc2Cl)c1	13.8%
Cc1cc(C(=O)CSc2nnc(N)s2)c(C)n1C1CC1	3.92%
CCCCn1c(N)c(N(C(=O)CSc2nnc(C)n2-c2ccccc2)C2CCCC2)c(=O)[nH]c1=O	7.51%
COc1ccc(CCNc2nnc(C)c(=O)[nH]2)cc1OC	5.03%
COc1ccc(C(=O)Oc2cc(C)c(CN3CCOCC3)cc2C)cc1OC	-1.52%
CC1(C)CC(NC(=S)NC(=O)c2cc(Br)ccc2Cl)CC(C)(C)N1	-2.52%
CN1/C(=C\C=C2\N=C(c3ccc(F)cc3)OC2=O)C(C)(C)c2ccccc21	3.54%
CN(C(=O)Cn1cc(C(F)(F)F)cc(Cl)c1=O)C1CCS(=O)(=O)C1 (centres unmarked)	11.9%
CC(=O)N1CCN(c2ccc(NC(=O)C(C)Oc3ccc(Cl)cc3Cl)cc2)CC1 (centres unmarked)	1.03%
Cc1noc(C)c1S(=O)(=O)N1CCN(C(c2ccccc2)c2ccc(Cl)cc2)CC1 (centres unmarked)	-0.0312%

— PMC4336329 (PLoS ONE, 2015)
